# Source: US20240228612A1 (SICHUAN KELUN BIOTECH BIOPHARMACEUTICAL, published 2024)
# T1: human Nectin-4 on cell membrane surface (human, UniProt Q96NY8 32-510)
# T1 sequence (looked up): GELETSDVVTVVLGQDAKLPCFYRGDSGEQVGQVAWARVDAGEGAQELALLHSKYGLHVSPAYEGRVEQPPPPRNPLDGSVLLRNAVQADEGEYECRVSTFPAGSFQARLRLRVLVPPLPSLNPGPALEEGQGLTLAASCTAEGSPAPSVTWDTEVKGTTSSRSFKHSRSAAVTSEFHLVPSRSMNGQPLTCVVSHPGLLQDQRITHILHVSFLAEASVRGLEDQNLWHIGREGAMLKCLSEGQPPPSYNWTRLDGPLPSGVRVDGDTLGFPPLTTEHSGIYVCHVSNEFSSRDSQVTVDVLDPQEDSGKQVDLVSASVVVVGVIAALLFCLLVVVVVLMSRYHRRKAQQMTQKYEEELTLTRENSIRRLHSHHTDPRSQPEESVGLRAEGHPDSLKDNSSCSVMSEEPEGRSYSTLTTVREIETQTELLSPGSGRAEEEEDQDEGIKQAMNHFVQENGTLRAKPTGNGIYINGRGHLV
# B1: anti-human Nectin-4 ADC 31HZ-TL001 (other, DAR 7.75)
# heavy: QVQLVQSGAEVKKPGSSVKVSCKASGYTFTDYWMNWVRLAPGQGLEWIGMIHPSDSETRLNQKFQGRVTLTVDKSTSTAYMELSSLRSEDTAVYYCARWDFRIYYAMDYWGQGTLVTVSS[human IgG1 constant region not printed]
# light: DVVITQSPDSLAVSLGERATINCKSSQSLLNTNSQKNYLAWYQQKPGQSPKLLVYFASTRESGVPDRFSGSGSGTDFTLTISSLQAEDVAVYFCQQHYSTPLTFGGGTKVEIKRTVAAPSVFIFPPSDEQLKSGTASVVCLLNNFYPREAKVQWKVDNALQSGNSQESVTEQDSKDSTYSLSSTLTLSKADYEKHKVYACEVTHQGLSSPVTKSFNRGEC
# modifications: 0 to 1 TL001 linked by thioether bond to a sulfhydryl group of the light chain; 0 to 4 TL001 linked by thioether bond to sulfhydryl groups of the heavy chain
# B2: anti-human Nectin-4 ADC 74HZ-TL001 (other, DAR 7.98)
# heavy: QVQLVQSGAEVKKPGSSVKVSCKASGYTFINYWMNWVRQAPGQGLEWIGMIHPSDSATRLNQSFQGRVTLTVDKSTSTAYMELSSLRSEDTAVYYCARWGNFYTVNAWYYFDYWGQGTLVTVSS[human IgG1 constant region not printed]
# light: B1 light with V2I, S28T, T32S, S34T, V54F, G106Q, V110L
# modifications: TL001 linked by thioether bond to sulfhydryl groups
# Biological target: T1, human Nectin-4 on cell membrane surface
# Assay: cell-based or functional assay
Binder,killing activity EC50 on A549-Nectin-4 cells (CCK8) [ng/mL],killing activity EC50 on MDA-MB-468 cells (CCK8) [ng/mL],killing activity EC50 on NCI-N87 cells (CCK8) [ng/mL],killing activity EC50 on T24-Nectin-4 cells (CCK8) [ng/mL]
B1,1390,1030,9380,1280
B2,1360,2280,–,–

# Residue numbers refer to the chain shown, from its start.
